Experimental data from patent US20240108766A1 (Bayer, published 2024).
Substitutions are numbered along the chain they refer to.

Target: T1, human LRRC15 expressed on cells (human, UniProt Q8TF66 22-581)
T1 sequence (looked up): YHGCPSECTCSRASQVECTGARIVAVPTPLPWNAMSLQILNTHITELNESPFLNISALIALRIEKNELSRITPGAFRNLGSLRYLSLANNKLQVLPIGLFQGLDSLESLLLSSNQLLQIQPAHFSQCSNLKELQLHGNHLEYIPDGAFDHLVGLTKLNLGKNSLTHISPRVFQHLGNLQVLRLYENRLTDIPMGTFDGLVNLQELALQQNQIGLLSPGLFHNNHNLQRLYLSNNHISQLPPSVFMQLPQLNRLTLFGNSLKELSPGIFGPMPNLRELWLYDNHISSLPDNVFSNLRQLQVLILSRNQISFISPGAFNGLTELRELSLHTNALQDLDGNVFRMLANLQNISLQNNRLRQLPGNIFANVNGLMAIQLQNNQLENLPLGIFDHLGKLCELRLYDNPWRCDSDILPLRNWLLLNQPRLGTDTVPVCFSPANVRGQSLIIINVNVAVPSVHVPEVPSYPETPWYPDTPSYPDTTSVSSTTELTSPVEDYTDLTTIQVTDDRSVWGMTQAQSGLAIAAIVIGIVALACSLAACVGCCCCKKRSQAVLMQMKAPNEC
Test: cell-based or functional assay

B1: LRRC15-TTC (TPP-17078) (other)
heavy: EVQLVQSGAEVKKPGASVKVSCKASGYKFSSYWIEWVKQAPGQGLEWIGEILPGSDTTNYNEKFKDRATFTSDTSINTAYMELSRLRSDDTAVYYCARDRGNYRAWFGYWGQGTLVTVSS[human IgG1 constant region omitted]
light: DIQMTQSPSSLSASVGDRVTITCRASQSISSYLNWYQQKPGGAPKFLIYYASSLQSGVPSRFSGSGSGTDYTLTISSLQPEDFATYYCQQGFSLPWTFGGGTKVEIKRTVAAPSVFIFPPSDEQLKSGTASVVCLLNNFYPREAKVQWKVDNALQSGNSQESVTEQDSKDSTYSLSSTLTLSKADYEKHKVYACEVTHQGLSSPVTKSFNRGEC
modifications: as for the heavy chain; sites not stated; 3,2-HOPO chelator coupled by amide bonds (NHS/EDC; lysine ε-amino groups), complexed with thorium-227; sites not stated
IC50 (kBq/ml), cell viability, Cell Titer Glo, HT29-LRRC15: 0.09 kBq/ml | IC50 (kBq/ml), cell viability, Cell Titer Glo, Saos-2: 0.3 kBq/ml

B2: LRRC15-TTC (TPP-17421) (other)
heavy: B1 heavy with T57W, G108Q
light: B1 light with F92L, S93E
modifications: as for the heavy chain; sites not stated; 3,2-HOPO chelator coupled by amide bonds (NHS/EDC; lysine ε-amino groups), complexed with thorium-227; sites not stated
IC50 (kBq/ml), cell viability, Cell Titer Glo, HT29-LRRC15: 0.1 kBq/ml | IC50 (kBq/ml), cell viability, Cell Titer Glo, Saos-2: 0.34 kBq/ml
